# Reference: PubChem BioAssay AID2202238 (Ras Initiative Chemistry Research Team, Frederick National …, 2025)
# This is one part of the list. Further columns of the screen follow, without active or inactive calls.
# Target: GTPase KRas (Homo sapiens) (UniProt P01116)
# Assay: Fragment capture on engineered cysteines, share of protein labelled (AID 2202238)
# Parameters: protein at 5 µM with 500 µM competing thiol for 1.5 h
# Conditions: KRAS G12D cysteine mutants, disulfide tethering, MALDI-TOF labeling, stronger effect = higher value, fragment at 500 µM
# [1] = measured here: G75C mutant labeling
# [2] = measured here: H94C mutant labeling
# [3] = measured here: I36C mutant labeling
# [4] = measured here: L120C mutant labeling
# [5] = measured here: M67C mutant labeling
# [6] = measured here: M72C mutant labeling
# [7] = measured here: N86C mutant labeling
# [8] = measured here: P121C mutant labeling
# [9] = measured here: S122C mutant labeling
# [10] = measured here: S136C mutant labeling
# [11] = measured here: G60C mutant labeling
# [12] = measured here: N26C mutant labeling
# Chain of UniProt P01116 (P01116 whole entry, looked up, the tested form may be a part): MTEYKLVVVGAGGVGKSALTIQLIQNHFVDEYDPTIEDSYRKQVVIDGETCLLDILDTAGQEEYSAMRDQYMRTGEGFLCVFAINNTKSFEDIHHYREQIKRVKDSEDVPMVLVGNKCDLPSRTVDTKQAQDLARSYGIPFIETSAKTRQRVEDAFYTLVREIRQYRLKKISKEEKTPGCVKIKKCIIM
structure (smiles),measurement,setting,value
O=C(CCS)Nc1cccc(-c2nc(C3CC3)no2)c1,percent labeling,[1],6.7%
same,percent labeling,[2],13.9%
same,percent labeling,[3],18.3%
same,percent labeling,[4],20.2%
same,percent labeling,[5],10.5%
same,percent labeling,[6],29%
same,percent labeling,[7],15%
same,percent labeling,[8],14.6%
same,percent labeling,[9],10.9%
same,percent labeling,[10],24%
COc1cccc(-c2c[nH]cc2C(=O)NCCS)c1,percent labeling,[11],45.2%
same,percent labeling,[1],19%
same,percent labeling,[2],35.7%
same,percent labeling,[3],16.1%
same,percent labeling,[4],40.7%
same,percent labeling,[5],32.6%
same,percent labeling,[6],56.1%
same,percent labeling,[12],33.1%
same,percent labeling,[7],25%
same,percent labeling,[8],25.1%
same,percent labeling,[9],20%
same,percent labeling,[10],31.9%
O=C(NCCS)C1CCC(=O)N(CC(F)(F)F)C1 (stereo not drawn),percent labeling,[11],27%
same,percent labeling,[1],9.2%
same,percent labeling,[2],35.9%
same,percent labeling,[3],33.7%
same,percent labeling,[4],43.8%
same,percent labeling,[5],30.6%
same,percent labeling,[6],17.9%
same,percent labeling,[12],33.2%
same,percent labeling,[7],23.9%
same,percent labeling,[8],38.5%
same,percent labeling,[9],33.7%
same,percent labeling,[10],46.7%
COc1cc2nc(N3CCN(C(=O)CCS)CC3)nc(N)c2cc1OC,percent labeling,[1],11%
same,percent labeling,[2],13.8%
same,percent labeling,[3],23.9%
same,percent labeling,[4],12%
same,percent labeling,[5],15.8%
same,percent labeling,[6],20.3%
same,percent labeling,[7],6.9%
same,percent labeling,[8],13.4%
same,percent labeling,[9],8.5%
same,percent labeling,[10],34.2%
O=C(CCS)N1CCN(C(=O)c2ccc(F)cc2F)CC1,percent labeling,[1],12.9%
same,percent labeling,[2],34.4%
same,percent labeling,[3],41.4%
same,percent labeling,[4],30.3%
same,percent labeling,[5],38.1%
same,percent labeling,[6],25.6%
same,percent labeling,[7],18.2%
same,percent labeling,[8],39.1%
same,percent labeling,[9],38%
same,percent labeling,[10],54%
O=C(CCc1cc(Br)ccc1F)NCCS,percent labeling,[11],55.9%
same,percent labeling,[1],26.7%
same,percent labeling,[2],31.1%
same,percent labeling,[3],19.5%
same,percent labeling,[4],28.2%
same,percent labeling,[5],27.4%
same,percent labeling,[6],49.9%
same,percent labeling,[12],34.6%
same,percent labeling,[7],24.9%
same,percent labeling,[8],26.1%
same,percent labeling,[9],18.4%
same,percent labeling,[10],30.4%
Cn1cc(Br)c(C(=O)NCCS)cc1=O,percent labeling,[11],27%
same,percent labeling,[1],8.8%
same,percent labeling,[2],24.2%
same,percent labeling,[3],20.6%
same,percent labeling,[4],30.4%
same,percent labeling,[5],25.5%
same,percent labeling,[6],16.6%
same,percent labeling,[12],32.2%
same,percent labeling,[7],27.7%
same,percent labeling,[8],25.5%
same,percent labeling,[9],28%
same,percent labeling,[10],35.3%
Cc1ccc(C(=O)NCCS)c(Cl)n1,percent labeling,[11],39.9%
same,percent labeling,[1],19%
same,percent labeling,[2],32.8%
same,percent labeling,[3],33.6%
same,percent labeling,[4],29.9%
same,percent labeling,[5],36%
same,percent labeling,[6],30.7%
same,percent labeling,[12],37.2%
same,percent labeling,[7],31.2%
same,percent labeling,[8],34.7%
same,percent labeling,[9],34.2%
same,percent labeling,[10],52.2%
O=C(CCS)NCCc1nc(-c2ccccc2)no1,percent labeling,[1],13.6%
same,percent labeling,[2],35.7%
same,percent labeling,[3],42.8%
same,percent labeling,[4],30.4%
same,percent labeling,[5],50.8%
same,percent labeling,[6],36%
same,percent labeling,[7],22.4%
same,percent labeling,[8],47.7%
same,percent labeling,[9],34.9%
same,percent labeling,[10],52.6%
Cc1nnnn1-c1cc(F)cc(C(=O)NCCS)c1,percent labeling,[11],38.5%
same,percent labeling,[1],18.7%
same,percent labeling,[2],38.9%
same,percent labeling,[3],31.1%
same,percent labeling,[4],36.3%
same,percent labeling,[5],38.9%
same,percent labeling,[6],37.7%
same,percent labeling,[12],44.3%
same,percent labeling,[7],29.8%
same,percent labeling,[8],35%
same,percent labeling,[9],36.8%
same,percent labeling,[10],46%
O=C(NCCS)c1ccc(-n2cnc3ccccc32)nc1,percent labeling,[11],24.1%
same,percent labeling,[1],11.4%
same,percent labeling,[2],13.5%
same,percent labeling,[3],12%
same,percent labeling,[4],13.5%
same,percent labeling,[5],14.1%
same,percent labeling,[6],33.7%
same,percent labeling,[12],27.9%
same,percent labeling,[7],13.8%
same,percent labeling,[8],12.2%
same,percent labeling,[9],8.6%
same,percent labeling,[10],16%
Cc1ccc2c(CCNC(=O)CCS)c[nH]c2n1,percent labeling,[1],19.6%
same,percent labeling,[2],31.4%
same,percent labeling,[3],49.8%
same,percent labeling,[4],37.4%
same,percent labeling,[5],36.1%
same,percent labeling,[6],39.1%
same,percent labeling,[7],29.5%
same,percent labeling,[8],33.8%
same,percent labeling,[9],32.7%
same,percent labeling,[10],51.3%
CC(C)n1cc(C2=CCCN(C(=O)CCS)CC2)nn1,percent labeling,[1],5.9%
same,percent labeling,[2],22.5%
same,percent labeling,[3],21.5%
same,percent labeling,[4],16.3%
same,percent labeling,[5],19.4%
same,percent labeling,[6],8.6%
same,percent labeling,[7],11.6%
same,percent labeling,[8],13.8%
same,percent labeling,[9],20.3%
same,percent labeling,[10],30.6%
O=C(CCS)NCC12CC(Cc3ccccc3)(CO1)C2,percent labeling,[1],24.3%
same,percent labeling,[2],38.3%
same,percent labeling,[3],41.6%
same,percent labeling,[4],46.7%
same,percent labeling,[5],51.2%
same,percent labeling,[6],40.5%
same,percent labeling,[7],26.3%
same,percent labeling,[8],38.1%
same,percent labeling,[9],38.8%
same,percent labeling,[10],60.7%
NC(=O)C1(N2CCN(C(=O)CCS)CC2)CCCCC1,percent labeling,[1],11.2%
same,percent labeling,[2],30.9%
same,percent labeling,[3],40%
same,percent labeling,[4],35.6%
same,percent labeling,[5],40.2%
same,percent labeling,[6],19.6%
same,percent labeling,[7],26.3%
same,percent labeling,[8],32.7%
same,percent labeling,[9],40%
same,percent labeling,[10],56.8%
Cc1cc(NC(=O)CCS)nn1Cc1ccccc1Cl,percent labeling,[1],14.8%
same,percent labeling,[2],19.5%
same,percent labeling,[3],23.8%
same,percent labeling,[4],25.5%
same,percent labeling,[5],21.2%
same,percent labeling,[6],31.3%
same,percent labeling,[7],19%
same,percent labeling,[8],20.6%
same,percent labeling,[9],15.9%
same,percent labeling,[10],39.9%
CN(Cc1nc2ccccc2c(=O)[nH]1)C(=O)CCS,percent labeling,[1],16.7%
same,percent labeling,[2],35.9%
same,percent labeling,[3],39.9%
same,percent labeling,[4],38.4%
same,percent labeling,[5],43.9%
same,percent labeling,[6],52.2%
same,percent labeling,[7],33%
same,percent labeling,[8],66.1%
same,percent labeling,[9],35.5%
same,percent labeling,[10],56.9%
O=C(NCCS)c1ccc(Cl)c(N2CCNC2=O)c1,percent labeling,[11],48.5%
same,percent labeling,[1],27.8%
same,percent labeling,[2],41.8%
same,percent labeling,[3],29.7%
same,percent labeling,[4],47.4%
same,percent labeling,[5],34.6%
same,percent labeling,[6],51.5%
same,percent labeling,[12],46.2%
same,percent labeling,[7],30.8%
same,percent labeling,[8],35.8%
same,percent labeling,[9],36.5%
same,percent labeling,[10],75.5%
O=C(CCS)Nc1ccccc1CN1CCc2ccccc21,percent labeling,[1],0%
same,percent labeling,[2],17.2%
same,percent labeling,[3],10.6%
same,percent labeling,[4],0%
same,percent labeling,[5],10.2%
same,percent labeling,[6],7%
same,percent labeling,[7],0%
same,percent labeling,[8],4.9%
same,percent labeling,[9],5.9%
same,percent labeling,[10],14%
CCCN(CCC)C(=O)c1ccc(NC(=O)CCS)cc1,percent labeling,[1],15%
same,percent labeling,[2],27.4%
same,percent labeling,[3],26.6%
same,percent labeling,[4],26.3%
same,percent labeling,[5],26.6%
same,percent labeling,[6],30.7%
same,percent labeling,[7],23%
same,percent labeling,[8],28%
same,percent labeling,[9],21.3%
same,percent labeling,[10],47.8%
O=C(Cc1sc(-c2ccccc2)nc1-c1cccs1)NCCS,percent labeling,[11],33.2%
same,percent labeling,[1],13.3%
same,percent labeling,[2],13.5%
same,percent labeling,[3],8.7%
same,percent labeling,[4],14%
same,percent labeling,[5],5.3%
same,percent labeling,[6],27.9%
same,percent labeling,[12],14.5%
same,percent labeling,[7],6.3%
same,percent labeling,[8],8.1%
same,percent labeling,[9],2.8%
same,percent labeling,[10],15.8%
O=C(CCCc1ccc2[nH]c(=O)[nH]c2c1)NCCS,percent labeling,[11],57.3%
same,percent labeling,[1],18.4%
same,percent labeling,[2],36%
same,percent labeling,[3],26.9%
same,percent labeling,[4],34.3%
same,percent labeling,[5],35%
same,percent labeling,[6],43.2%
same,percent labeling,[12],50.8%
same,percent labeling,[7],28.8%
same,percent labeling,[8],29.9%
same,percent labeling,[9],31.7%
same,percent labeling,[10],41.2%
O=C(NCCS)C(c1ccncc1)C1CCCCC1 (stereo not drawn),percent labeling,[11],60.5%
same,percent labeling,[1],22%
same,percent labeling,[2],35.5%
same,percent labeling,[3],32.3%
same,percent labeling,[4],35%
same,percent labeling,[5],36%
same,percent labeling,[6],32.1%
same,percent labeling,[12],40.3%
same,percent labeling,[7],26.7%
same,percent labeling,[8],30.5%
same,percent labeling,[9],24.3%
same,percent labeling,[10],38.7%
O=C(NCCS)c1ccc(-n2ncc3ccccc32)c(Cl)c1,percent labeling,[11],21.3%
same,percent labeling,[1],8.3%
same,percent labeling,[2],12.3%
same,percent labeling,[3],5.6%
same,percent labeling,[4],8.9%
same,percent labeling,[5],6%
same,percent labeling,[6],34.7%
same,percent labeling,[12],17.6%
same,percent labeling,[7],5.3%
same,percent labeling,[8],7.8%
same,percent labeling,[9],3.9%
same,percent labeling,[10],9.5%
Cn1cc(C(=O)NC2CCN(C(=O)CCS)CC2)cn1,percent labeling,[1],11.3%
same,percent labeling,[2],32.7%
same,percent labeling,[3],41.8%
same,percent labeling,[4],33.2%
same,percent labeling,[5],37.7%
same,percent labeling,[6],23.6%
same,percent labeling,[7],27.9%
same,percent labeling,[8],37%
same,percent labeling,[9],37.2%
same,percent labeling,[10],46.8%
CCN(CC)C(=O)N1CCC(C(=O)NCCS)CC1,percent labeling,[11],24.9%
same,percent labeling,[1],10%
same,percent labeling,[2],34.1%
same,percent labeling,[3],23.8%
same,percent labeling,[4],35.6%
same,percent labeling,[5],32.3%
same,percent labeling,[6],16.4%
same,percent labeling,[12],35.2%
same,percent labeling,[7],28%
same,percent labeling,[8],34.1%
same,percent labeling,[9],35.6%
same,percent labeling,[10],48.6%
CCn1c(=O)[nH]c(=O)c2c(C(=O)NCCS)cc(C3CC3)nc21,percent labeling,[11],23.6%
same,percent labeling,[1],4.3%
same,percent labeling,[2],9.8%
same,percent labeling,[3],15%
same,percent labeling,[4],12.7%
same,percent labeling,[5],13.1%
same,percent labeling,[6],33.4%
same,percent labeling,[12],29.7%
same,percent labeling,[7],15.5%
same,percent labeling,[8],8.3%
same,percent labeling,[9],7.9%
same,percent labeling,[10],59%
CN(C(=O)CCS)C1CS(=O)(=O)C1(C)C (stereo not drawn),percent labeling,[1],11.2%
same,percent labeling,[2],30.1%
same,percent labeling,[3],38.6%
same,percent labeling,[4],19.2%
same,percent labeling,[5],29.3%
same,percent labeling,[6],20.6%
same,percent labeling,[7],27%
same,percent labeling,[8],29.1%
same,percent labeling,[9],32.8%
same,percent labeling,[10],51.7%
O=C(CCS)Nc1ccc(S(=O)(=O)CC2CCOC2)cc1 (stereo not drawn),percent labeling,[1],26.2%
same,percent labeling,[2],30%
same,percent labeling,[3],42.9%
same,percent labeling,[4],22.3%
same,percent labeling,[5],33.5%
same,percent labeling,[6],37.1%
same,percent labeling,[7],23.8%
same,percent labeling,[8],22%
same,percent labeling,[9],28.4%
same,percent labeling,[10],37.1%
NC(=O)NC1CCC(NC(=O)CCS)CC1 (stereo not drawn),percent labeling,[1],13.9%
same,percent labeling,[2],32.7%
same,percent labeling,[3],32.8%
same,percent labeling,[4],26.4%
same,percent labeling,[5],31.3%
same,percent labeling,[6],18.9%
same,percent labeling,[7],29.6%
same,percent labeling,[8],33.3%
same,percent labeling,[9],35.7%
same,percent labeling,[10],52.2%
